# Reference: publication PMC4336329 (PLoS ONE, 2015)
# The campaign covered roughly 310,000 compounds. About 14,000 (4.5%) showed an effect of 50% or more. Effects have a minus sign here. This is one part of the list.
# Molecular target: human ether-à-go-go-related gene (hERG) potassium channel (human, UniProt Q12809)
# Assay: primary screen, population patch clamp on CHO cells stably expressing hERG
# 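Also: peak tail current of the secondary pulse compared with the same well before compound.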
# human ether-à-go-go-related gene (hERG) potassium channel, sequence (Q12809 whole entry, looked up): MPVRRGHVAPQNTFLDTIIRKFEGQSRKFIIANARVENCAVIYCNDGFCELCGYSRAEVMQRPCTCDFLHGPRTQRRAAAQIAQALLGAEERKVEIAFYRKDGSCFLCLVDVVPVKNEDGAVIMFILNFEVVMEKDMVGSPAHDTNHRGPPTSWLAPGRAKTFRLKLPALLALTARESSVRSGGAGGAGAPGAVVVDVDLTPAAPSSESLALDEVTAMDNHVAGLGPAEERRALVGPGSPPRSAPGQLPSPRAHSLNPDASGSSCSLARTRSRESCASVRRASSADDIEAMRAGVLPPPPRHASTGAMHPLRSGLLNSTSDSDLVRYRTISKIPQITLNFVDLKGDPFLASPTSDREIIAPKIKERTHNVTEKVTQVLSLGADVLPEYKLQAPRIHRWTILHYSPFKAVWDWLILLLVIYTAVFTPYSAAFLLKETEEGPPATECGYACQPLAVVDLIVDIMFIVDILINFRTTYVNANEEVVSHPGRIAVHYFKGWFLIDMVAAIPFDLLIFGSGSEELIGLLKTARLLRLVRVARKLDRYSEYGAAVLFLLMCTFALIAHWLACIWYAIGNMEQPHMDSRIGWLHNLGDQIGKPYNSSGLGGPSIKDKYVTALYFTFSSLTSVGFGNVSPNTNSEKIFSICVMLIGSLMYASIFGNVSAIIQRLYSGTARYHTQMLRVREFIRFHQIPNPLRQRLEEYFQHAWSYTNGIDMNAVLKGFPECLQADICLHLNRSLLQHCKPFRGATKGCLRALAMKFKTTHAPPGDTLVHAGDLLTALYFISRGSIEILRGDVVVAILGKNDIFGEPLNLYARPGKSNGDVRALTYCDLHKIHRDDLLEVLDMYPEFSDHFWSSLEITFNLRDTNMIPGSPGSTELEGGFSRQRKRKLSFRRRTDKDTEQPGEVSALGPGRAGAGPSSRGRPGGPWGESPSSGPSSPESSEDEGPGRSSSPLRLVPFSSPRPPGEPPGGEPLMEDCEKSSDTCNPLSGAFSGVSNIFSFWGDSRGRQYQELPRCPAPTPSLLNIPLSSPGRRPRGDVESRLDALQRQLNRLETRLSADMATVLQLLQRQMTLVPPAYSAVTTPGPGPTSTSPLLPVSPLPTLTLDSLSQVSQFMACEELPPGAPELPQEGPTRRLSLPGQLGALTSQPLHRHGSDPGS
row,Compound,"hERG current change (%, negative = inhibition) at 10uM"
1,COCCSc1nnc(NC(=O)c2cc(OC)c(OC)cc2[N+](=O)[O-])s1,18.6%
2,COc1cccc(C2C(=O)N(C3CCCCC3)CC(=O)N2Cc2ccc(F)cc2)c1 (stereo not shown),-43.8%
3,CN(c1ccccc1)c1ccc(/C=N/N2CCOCC2)cc1,1.86%
4,CCOc1ccc(-c2ccc(NS(=O)(=O)c3cc([N+](=O)[O-])c(C)c([N+](=O)[O-])c3)cc2)nn1,0.623%
5,COC(=O)[C@@H](NC(=O)O[C@@H]1C(=O)c2cc(Br)ccc2O[C@H]1c1cccc(OC)c1)C(C)C,-2.02%
6,O=C(OCC(=O)N1CCC(Cc2ccccc2)CC1)c1ccc[nH]c1=O,-4.41%
7,COc1ccc2oc(=O)c(N3C(=O)c4ccccc4C3=O)cc2c1,30.8%
8,O=c1[nH]c(C(F)(F)F)nc2ccc3ccccc3c12,17.4%
9,COc1ccc(C2CCCN2C(=O)Nc2ccc(F)cc2)cc1OC (stereo not shown),-4.22%
10,CC(CC(=O)Nc1cc(C(F)(F)F)ccc1Cl)c1ccccc1 (stereo not shown),5.25%
11,Cc1cc(N)n(-c2ccccc2)n1,12.9%
12,O=C(CSc1nnc(Cc2cccs2)n1C1CC1)NC1CCS(=O)(=O)C1 (stereo not shown),-1.17%
13,Cc1nc(NC(=O)c2ccccc2)sc1Cc1ccc2c(c1)OCO2,-5.17%
14,COc1ccc(-n2c(C)nc3cc(C(=O)NCc4ccc5c(c4)OCO5)ccc32)cc1,-16.8%
15,CC1CCCCC12NC(=O)N(CC(=O)Nc1sc3c(c1C(N)=O)CCC3)C2=O (stereo not shown),-3.89%
16,CS(=O)(=O)c1ccc(Cl)c(NC(=O)COc2ccc3c(c2)CCC3)c1,-4.02%
17,COc1ccc(C(C)(C)C)cc1NS(=O)(=O)c1cccc2cccnc12,18.3%
18,Cc1ccc(C)c(CSc2nnc([C@@H](N)C(C)C)o2)c1.Cl,6.63%
19,Cc1cccc(NC(=O)c2nc[nH]c2C(=O)N[C@@H](CCCCNC(=O)OC(C)(C)C)C(=O)OC(C)(C)C)c1,12.5%
20,CCN(CC(=O)Nc1c(F)cccc1F)C(=O)C1CCN(S(=O)(=O)c2ccc(F)cc2)CC1,-14%
21,OCc1csc(=Nc2ccccc2)n1-c1ccccc1,0.29%
22,CCCCn1c(N)c(N(CCOC)C(=O)CCc2ccc(OC)cc2)c(=O)[nH]c1=O,12.4%

row,Compound,"hERG current change (%, negative = inhibition) at 10uM"
1,Cc1ccc(C(=O)CN2C(=O)C(C)Oc3ccccc32)cc1 (stereo not shown),-1.24%
2,O=C(NCCS(=O)(=O)NCc1ccccc1Cl)c1ccccc1,-14.5%
3,O=C(CN1CCOCC1)Nc1nc2cc([N+](=O)[O-])ccc2s1,-32.3%
4,COc1cc(NS(=O)(=O)c2ccc(NC(=O)NC3CCCCC3)cc2)nc(OC)n1,6.27%
5,C=CCNC(=O)COC(=O)c1ccc(Cl)c(S(N)(=O)=O)c1,9.88%
6,CN(CC(=O)NCc1ccccn1)S(=O)(=O)c1ccccc1,5.77%
7,CC(OC(=O)COc1ccccc1[N+](=O)[O-])C(=O)Nc1ccc(N2CCOCC2)cc1 (stereo not shown),-3.06%
8,COc1cc(CNC2CCCC2)cc(Cl)c1OCc1ccc(F)cc1.Cl,-37.8%
9,Cc1nc(NCc2ccco2)[nH]c(=O)c1CCC(C)C,-1.09%
10,CN(Cc1ccccc1)C(=O)CN1C(=O)NC2(CCCC2)C1=O,-12.6%
11,CCOC(=O)C1=NN(c2ccccc2C)C2=NC(C)=C(C(=O)OC)C(c3cccs3)N12 (stereo not shown),-16.3%
12,CCCC(c1nnnn1Cc1ccccc1)N1CCC(C(N)=O)CC1.Cl (stereo not shown),-3.44%
13,COc1cccc(C2NC(=S)NC(C)=C2C(=O)c2ccccc2)c1OC (stereo not shown),7.62%
14,CCOCCCN(Cc1ccco1)S(=O)(=O)c1csc(C(N)=O)c1,20.1%
15,O=C(NCc1ccco1)/C(=C/c1cccc(C(F)(F)F)c1)c1nc2ccccc2[nH]1,15.4%
16,O=S(=O)(NCC(c1cccnc1)N1CCN(c2ccccc2F)CC1)c1cccs1 (stereo not shown),-60.5%
17,c1ccc2nc(OCCN3CC3)ccc2c1,0.471%
18,Cc1ccc(OS(=O)(=O)c2ccc(-c3csc(C)n3)s2)c(C)c1,15.8%
19,O=CN1CCN(C(=O)c2ccccc2F)CC1,17.3%
20,O=C(NNS(=O)(=O)c1ccc(F)c(Cl)c1)c1cccc(S(=O)(=O)N2CCOCC2)c1,36.7%
21,O=C(NCc1ccccc1)c1ccc2c(=O)n(CC3CCCO3)c(=S)[nH]c2c1 (stereo not shown),-2.39%
22,COc1cc(OC)c(S(=O)(=O)N2CCCCC2)cc1S(=O)(=O)N1CCCCC1,-17.6%

row,Compound,"hERG current change (%, negative = inhibition) at 10uM"
1,COc1cc(Cn2c(N)c(C(=O)NCc3ccco3)c3nc4ccccc4nc32)cc(OC)c1OC,-11.8%
2,COCC(=O)Nc1ccc(Br)c(C)c1,1.85%
3,COc1cc(NC(=O)CN2C(=O)NC(CC(C)C)C2=O)cc(OC)c1OC (stereo not shown),7.49%
4,O=C(C1CC1c1ccccc1)N1CCOCC1 (stereo not shown),28.3%
5,CCOc1cc(/C=N/N2CCN(Cc3ccccc3)CC2)ccc1O,-8.42%
6,COCCN=C1N[C@@H](c2ccccc2)C(C(=O)OC)=C(C)N1Cc1ccccc1,-16.8%
7,Nc1nnnn1CC(=O)OCc1cccc(Br)c1,-13.8%
8,CN1CCN(c2nc(-c3ccccc3O)nc3ccccc23)CC1,9.47%
9,Cc1ccc(S(=O)(=O)N(C)C)cc1NC(=O)CSc1nnc(C2CC2)n1C1CC1,-17%
10,Cc1ccc(NC(=O)COC(=O)CCC(=O)c2cccs2)cc1,-6.94%
11,O=C(c1ccc(Br)cc1)c1cn[nH]c1-c1ccccc1O,5.85%
12,CCOc1ccc(NC(=O)N(c2ccccc2)c2ccccc2)cc1,7.25%
13,C(=N\n1cnnc1)/c1ccccc1OCCOc1ccccc1,-37.5%
14,CCOc1ccc(N2CC(C(=O)N3CCCCCC3)CC2=O)cc1 (stereo not shown),-7.34%
15,COc1c2ccc(C(=O)NCc3cc(C(F)(F)F)cc(C(F)(F)F)c3)cc2nn1C,14.7%
16,COc1ccc(CNS(=O)(=O)c2ccc(-c3ccc(=O)[nH]n3)o2)cc1,9.29%
17,CC(=O)Nc1nc2c(C)c(Cl)ccc2s1,14%
18,CCn1nc(-c2ccccc2)c2nc3ccccc3nc21,6.47%
19,COC(=O)c1ccc(CN2CCC(n3nccc3NC(=O)C3CCCC3)CC2)cc1,-67.7%
20,COc1ccc(CCNC(=O)COc2cc(=O)n(C)c3ccccc23)cc1OC,5.75%
21,O=C(c1ccc(Cl)cc1)C1CCCN(C(=O)/C=C/c2ccccn2)C1 (stereo not shown),-51.9%
22,CCC(C)C(=O)Nc1nnc(SCC(=O)N2C(C)CCCC2C)s1 (stereo not shown),-1.37%

row,Compound,"hERG current change (%, negative = inhibition) at 10uM"
1,COC(=O)c1cccc(NC(=O)c2cnn(C)c2)c1,15.9%
2,Nc1ccc(C(=O)NCCCCCCNC(=O)c2ccc(N)cc2)cc1,12.3%
3,Cc1ccc(N(C(=O)c2ccc(S(=O)(=O)N3CCCC3)cc2)C2C=CS(=O)(=O)C2)cc1 (stereo not shown),-32.9%
4,C=CCn1c(COc2ccc(OC)cc2)nc2ccccc21,-79.8%
5,COc1ccc(/C=C(\C#N)C(=O)Nc2cc(S(=O)(=O)N3CCCCC3)ccc2N2CCCCC2)cc1,6.92%
6,O=C(COC(=O)CNC(=O)c1ccc(-c2ccccc2)cc1)NCc1ccco1,2.07%
7,CCCCOC(=O)NC1(C)CCS(=O)(=O)C1 (stereo not shown),27.1%
8,Cc1ccc(C(=O)CN2C(=O)c3ccccc3S2(=O)=O)cc1,-15.2%
9,Cc1ccc(S(=O)(=O)C2C(=O)N(C)C3(C)CC2c2ccccc2O3)cc1C (stereo not shown),-1.49%
10,COc1ccccc1CCNC(=O)C1(C)CC1(Cl)Cl (stereo not shown),13.3%
11,O=C(c1cccc(-c2ccco2)c1)N1CCCC(N2CCN(c3ccc(F)cc3)CC2)C1 (stereo not shown),-78.5%
12,COc1cc(CN2CCC(C(=O)N3CCN(c4ccccc4F)CC3)CC2)cc(OC)c1OC.O=C(O)C(=O)O,-22.6%
13,CCN(CC)S(=O)(=O)c1ccc(NC(=O)CO/N=C(\N)c2ccccc2)cc1,-16.6%
14,Cc1csc(NC(=O)CSc2ccccc2F)n1,5.05%
15,O=S(=O)(c1ccc(F)cc1)N1CCN(C(=S)NC2CC2)CC1,-11%
16,CC(C)(C)C(=O)O/N=C(\N)c1c(Cl)cccc1Cl,6.09%
17,O=C(CSc1nnc(Cc2cc(=O)[nH]c(=O)[nH]2)n1-c1ccccc1)N1CCCCC1,20.7%
18,Cn1c(=O)c2c(ncn2CCC(=O)N/N=C/c2ccccc2)n(C)c1=O,-6.1%
19,O=C(OCc1ccc([N+](=O)[O-])cc1)c1cc([N+](=O)[O-])ccc1N1CCOCC1,-76.1%
20,C=CCNC(=O)N1CCc2[nH]c3ccc(F)cc3c2C1,6.56%
21,Cc1ccc(S(=O)(=O)N(C#N)c2nc(C)cc(C)n2)cc1,5%
22,CCOC(=O)CC1CCCCN1C(=O)c1cc(COc2cccc3cnccc23)on1 (stereo not shown),-12.1%
